B1: LINE1-full (parent)
chain: UACGUAGGUGGUUUUCCCCUGAUAGUGCUAAGGGGGCCUGGAAGUUUGGACUGGGCAGAGCUCAACACAGCGUGGCAAAGUGGCUGUGGCUAGACUGCCUCUCUGGAUUCCUCGUCACUCAGCAGGGCAUCUCUGAGAGAAAUGCC

The source gives no read counts; variants with many changes may rest on few reads.

In this data set the parent is B1. Briefly: self-cleavage, relative activity (ratio to wild type); higher = more cleavage; in vitro, sequencing; the parent is a self-cleaving ribozyme.
Regarding UACGUAGGUGGUCUUCCCCUGAUAGUGCUAAGGGGGCCUGGAAGUUCGGACUGGGCAGAGCUCAACACAGCGUGGCAAAGUGGCUGUGGCUAGACUGGCUCUCUGGAUUCCUCGUCACUCAGCAGGGCAUCUCUGAGAGAAAUGCC, the self-cleavage was found to be 0.35.

Consider UACGUAGGUGGUCUUCCCCUGAUAGUGCUAAGGGGGCCUGGAAGUUUGGACAGGGCAGAGCUCAACACAGCGUGGCAAAGUGGCUGUGGCUAGACUGCCUCUCUGGAUUCCUCGUCACUCAGCUGGGCAUCUCUGAGAGAAAUGCC, for which the self-cleavage came out at 1.4.

As for UACGUAGGUGGUCUUCCCCUGAUAGUGCUAAGGGGGCCUGGAAGGUUGGACUGGGCAGAGCUCAACACAGCGUGGCAAAGCGGCUGUGGCUAGACUGCCUCUCUGGAUGCCUCGUCACUCAGCAGGGCAUCUCUGAGAGAGAUGCC, the self-cleavage worked out at 0.

Take UACGUAGGUGGUCUUCCCCUGAUAGUGCUAAGGGGGCCUGGAAGUCAGGACUGGGCAGAGCUCAACACAGCGUGGCAAAGUGGCUGUGGCUAGACUGCCUCUCUGGAUUCCUCGUCACUCAGCAGGGCAUCUCUGAGAGAAAUGCC: the self-cleavage came out at 1.49.

Take UACGUAGGUGGUCUUCCCCUGAUAGUGCUAAGGGGGCCUGGAAGUUUGGACAGGGCAGAGCUCAACACAGCGUGGCAAAGUGGCUGUGGCUAGACUGCCUCUCUGGAUUCUUCGUCACUCAGCAGGGCAUCUCUGAGAGAAAUGCC: the self-cleavage stood at 1.08.

With UACGUAGGUGGUCUUCCCCUGAUAGUGCUAAGGGGGCCUGGAAGUUCGGACGGGGCAGAGCUCAACACAGCGUGGCAAAGUGGCUGUGGCUAGACUGCCUCUCUGGAUUCCUCGUCACUCAGCAGGGCAUCUCUGAGAGAAAUGCC, the self-cleavage is 1.06.

Regarding UACGUAGGUGGUCUUCCCCUGAUAGUGCUAAGGGGGCCUGGAAGCUUGGACUGGGCAGAGCUCAACACAGCGUGGCAAGGUGGCCGUGGCUAGACUGCCUCUCUGGAUUCCUCGUCACUCAGCAGGGCAUCUCUGAGAGAAAUGCC, the self-cleavage is 0.42.

For the variant UACGUAGGUGGUCUUCCCCUGAUAGUGCUAAGGGGGCCUGGAAGUCUGGACUGGGCAGAGCUCAACACAGCGUGGCAAAGUGGCUGUGGCUAGACUGCCUCUCCGGAUUCCUCGUCACUCAGCAGGGCAUCUCUGAGAGAAAUGCC, the self-cleavage is 2.3.

For UACGUAGGUGGUCUUCCCCUGAUAGUGCUAAGGGGGCCUGGAAGGUUGGACUGGGCAGAGCUCAACACAGCGUGGCAAAGUGGCUGUGGCUAGACUGCCUCUCUGGAUUCCUCGUCACUCAGCAGGGCAUCUCCGAGAGAAAUGCC, the self-cleavage worked out at 0.63.

With UACGUAGGUGGUCUUCCCCUGAUAGUGCUAAGGGGGCCCGGAAGUUUGGACUGGGCAGAGCUCAACACAGCGUGGCAAAGUGGCUGUGGCUAGACUGCCUCUCUGGAUUCCUCGUCACUCAGCAGGGCAUCUCUGAGAGAAAAGCC, the self-cleavage was 0.83.

UACGUAGGUGGUCUUCCCCUGAUAGUGCUAAGGGGGCCUGGAAGAUUGGACUGGGCAGAGCUCAACACAGCGUGGCAAAGUGGCUGAGGCUAGACUGCCUCUCUGGAUUCCUCGUCACUCAGCAGGGCAUCUCUGAGAGAAAUGCC: the self-cleavage amounted to 0.13.

Turning to UACGUAGGUGGUCUUCCCCUGAUAGUGCUAAGGGGGCCCGGAAGUCUGGACUGGGCAGAGCUCAACACAGCGUGGCAAAGUGGCUGUGGCUAGACUGCCUCUCUGGAUUCCUCGUCACUCAGCAGGGCAUCUCUGAGAGAAAUGCC, the self-cleavage turned out to be 0.27.

For the variant UACGUAGGUGGUCUUCCCCUGAUAGUGCUAAGGGGGCCUGGAAGUCUGGACUGGGCAGAGCUCAACACAGCGCGGCGAAGUGGCUGUGGCUAGACUGCCUCUCUGGAUUCCUCGUCACUCAGCAGGGCAUCUCUGAGAGAAAUGCC, the self-cleavage was found to be 1.67.

Regarding UACGUAGGUGGUCUUCCCCUGAUAGUGCUAAGGGGGCCAGGAAGUUUGGACUGGGCAGAGCUCAACACAGCGUGGCAAAGUGGCUGUGGCUAGACUGCCUCUCUGGAUUCCUCGUCACUCAGCAGGGCAUCUCUGAGAGAAACGCC, the self-cleavage is 0.92.

With UACGUAGGUGGUCUUCCCCUGAUAGUGCUAAGGGGGCCAGGAAGUUUGGACUGGGCAGAGCUCAACACAGCGUGGCAAAGUGGCUGUGGCUAGACUGCCUCUCUGGAUCCCUCGUCACUCAGCAGGGCAUCUCCGAGAGAAAUGCC, the self-cleavage was 1.26.

UACGUAGGUGGUCUUCCCCUGAUAGUGCUAAGGGGGCCUGGAAGCUUGGACUGGGCAGAGCUCAACACAGCGUGGCAAAAUGGCCGUGGCUAGACUGCCUCUCUGGAUUCCUCGUCACUCAGCAGGGCAUCUCUGAGAGAAAUGCC: the self-cleavage worked out at 0.34.

For the variant UACGUAGGUGGUCUUCCCCUGAUAGUGCUAAGGGGGCCUGGAAGUCAGGACUGGGCAGAGCUCAACACAGCGUGGCAAAGUGGCUGUGGCUAGACUGCCUCUCUGGAUUCCUCGUCACACAGCAGGGCAUCCCUGAGAGAAAUGCC, the self-cleavage came to 1.93.

On to UACGUAGGUGGUCUUCCCCUGAUAGUGCUAAGGGGGCCCGGAAGUUUGGACUGGGCAGAGCUCAACACAGCGUGGCAAAGUGGCUGUGGCUAGACUGCCUCUCUGGAUUCCUCGUCACUCAGCAGGGCAUCACUGAGAGAAAUGCC, for which the self-cleavage was 1.38.

With UACGUAGGUGGUCUUCCCCUGAUAGUGCUAAGGGGGCCUGGAAGUUUGGACAGGGCAGAGCUCAACACAGCGUGGCAAAGUGGCUGUGGCUAGACAGCCUCUCUGGAUUCCUCGUCACUCAGCAGGGCACCUCUGGGAGGAAUGCC, the self-cleavage amounted to 0.27.

On to UACGUAGGUGGUCUUCCCCUGAUAGUGCUAAGGGGGCCUGGAAGUUUGGACCGGGCAGAGCUCAACACAGCGGGGCAAAGUGGCUGUGGCUAGACUGCCUCUCUGGAUUCCUCGUCACUCAGCAGGGCAUCUCUGAGAGAAAUGCC, for which the self-cleavage worked out at 1.31.

Regarding UACGUAGGUGGUCUUCCCCUGAUAGUGCUAAGGGGGCCUGGAAGUCUGGACUGGGCAGAGCUCAACACAGCGUGGCAAAGUGGCUGCGGCUAGACUGCCUCUCUGGAUUCCUCGUCACUCAGCAGGGCAUCUCUGAGUGAAAUGCC, the self-cleavage stood at 0.17.

Take UACGUAGGUGGUCUUCCCCUGAUAGUGCUAAGGGGGCCUGGAAGUUCAGACUGGGCAGAGCUCAACACAGCGUGGCAAAGUGGCUGUGGCUAGACUGCCUCUCUGGAUUCCUCGUCACUCAGCAGGGCAUCUCUGAGAGAAAUGCC: the self-cleavage was 1.69.

In the case of UACGUAGGUGGUCUUCCCCUGAUAGUGCUAAGGGGGCCUGGAAGUCUGGACUGGGCAGAGCUCAUCACAGCGUGGCAAAGUGGCUGUGGCUAGACUGCCUCUCUGGAUUCCUCGUCACUCAGCAGGGCAUCUCUGAGAGAAAUGCC, the self-cleavage is 0.24.

For UACGUAGGUGGUCUUCCCCUGAUAGUGCUAAGGGGGCCUGGAAGUUCGGACUGGGCAGAGCUCAACACAGCGAGGCAAAGUGGCUGUGGCUAGACUGCCUCUCUGGAUCUCUCGUCACUAAGCAGGGCAUCUCUGGGAGAAAUGCC, the self-cleavage was found to be 1.47.

Consider UACGUAGGUGGUCUUCCCCUGAUAGUGCUAAGGGGGCCUGGAAGCUUGGACUGGGCUGAGCUCAACACAGCGUGGCAAAGUGGCUGUGGCUAGACUGCCUCUCUGGAUUCCUCGUCACUCAGCAGGGCAUCUCUGAGAGAAGUGCC, for which the self-cleavage was determined as 0.

For the variant UACGUAGGUGGUCUUCCCCUGAUAGUGCUAAGGGGGCCUGGAAGGUUGGACUGGGCAGAGCUCAACACAGCGUGGCAAAGUGGCUGUGGCUAGACAGCCUCUCUGGAUUCCUCGUCACUCAGCAGGGCAUCUCUGAGAGAAAUGCC, the self-cleavage came out at 0.08.

As for UACGUAGGUGGUCUUCCCCUGAUAGUGCUAAGGGGGCCUGGAAGCUUGGACUGGGCAGAGCUCAACACAGCGUGGCAAAGUGGCCGUGGCUAGACUGCCUCUCUGGAUUCCUCGUCACUCAGCAGGGCAUCUCUGAGAGAAAUGCC, the self-cleavage was determined as 0.88.

As to UACGUAGGUGGUCUUCCCCUGAUAGUGCUAAGGGGGCCUGGAAGUUUGGACCGGGCAGAGCUCAACACAGCGUGGCAAAGUGGCUGUGGCUAGACUGCCUCUCUGGAUUCCUCGUCACUCGGCAGGGCGUCUCUGAGAGAAAUGCC, the self-cleavage is 0.

As for UACGUAGGUGGUCUUCCCCUGAUAGUGCUAAGGGGGCCAGGAAGUAUGGACUGGGCAGAGCUCAACACAGCGUGGCAAAGUUGCUGUGGCUAGACUGCCUCUCUGGAUUCCUCGUCACUCAGCAGGGCAUCUCUGAGAGAAAUGCC, the self-cleavage was found to be 0.49.

For the variant UACGUAGGUGGUCUUCCCCUGAUAGUGCUAAGGGGGCCUGGAAGCUUGGACUGGGCAGAGCUCAACACAGCGUGGCAAAGUGGCUGUGGCUAGACAGCCUCUCUGGAUUCCUCGUCACUCAGCAGGGCAUCUCUGAGAGAAAUGCC, the self-cleavage is 0.

Turning to UACGUAGGUGGUCUUCCCCUGAUAGUGCUAAGGGGGCCUGGAAGUUAGGACUGGGCAGAGCUCAACACAGCGUGGCAAAGUGGCUGUGGCUAGACUGCCUCUCUGGAUUCCUCGUCACUCAGCAGGGCAUCUCUGAGAGAAGUGCC, the self-cleavage was 0.95.

Turning to UACGUAGGUGGUCUUCCCCUGAUAGUGCUAAGGGGGCCUGGAAGUUGGGACUGGGCAGAGCUCAACACAGCGUGGCAAAGUGGCUGUGGCUAGACUGCCUCUCUGGAUUCCUCGUCACUCAGCAGGGCAUCUCUGAGAGUAAUGCC, the self-cleavage came to 0.

Turning to UACGUAGGUGGUCUUCCCCUGAUAGUGCUAAGGGGGCCUGGAAGUCUGGACUGGGCAGAGCUCAACACAGCGUGGCAGAGUGGCUGUGGCUAGACUGCCUCUCUGGAUUCCUCGUCACUCAGCUGGGCAUCUCUGAGAGAAAUGCC, the self-cleavage is 0.57.

Regarding UACGUAGGUGGUCUUCCCCUGAUAGUGCUAAGGGGGCCUGGAAGAUUGGACUGGGCAGAGCUCAGCACAGCGUGGCAAAGUGGCUGUGGCUAGACUGCCUCUCUGGAUUCCUCGUCACUCAGCAGGGCAUCUCUGAGAGAAAUGCC, the self-cleavage is 0.

Regarding UACGUAGGUGGUCUUCCCCUGAUAGUGCUAAGGGGGCCCGGAAGUUUGGACUGGGCAGAGCUCAACACAGCGUGGCGAAGUGGCUGAGGCUAGACUGCCUCUCUGGAUCCCUCGUCACUCAGCAGGGCAUCUCUGAGAGAAAUGCC, the self-cleavage was found to be 0.

With UACGUAGGUGGUCUUCCCCUGAUAGUGCUAAGGGGGCCUGGAAGGUUGGACUGGGCAGAGCUCAACACAGCGUGGCAAAGUGGCUGUGGCUAGACCGCCUCUCUGGAUUCCUCGUCACUCAGCAGGGCAUCUCCGAGAGAAAUGCC, the self-cleavage worked out at 0.

In the case of UACGUAGGUGGUCUUCCCCUGAUAGUGCUAAGGGGGCCUGGAAGGUUGGACUGGGCAGAGCUCAACACAGCGUGGCAAAGUGGCUGUGGCUAGACUGCCUCUCAGGACUCCUCGUCACUCAGCAGGGCAUCUCUGAGAGAAGUGCC, the self-cleavage turned out to be 0.98.

As to UACGUAGGUGGUCUUCCCCUGAUAGUGCUAAGGGGGCCUGGAAGUUCGGACUGGGCAGAGCUCAACACAGCGUGGCAAAGUGGCUGUGGCUAGACUGCCUCUCUGGACUCCUCGUCACUCAGCAGGGCAUCUCUGAGAGAAAUGCC, the self-cleavage is 0.48.

With UACGUAGGUGGUCUUCCCCUGAUAGUGCUAAGGGGGCCUGGAAGAUUGGACUGGGCAGAGCCCAACACAGCGUGGCAAAGUGGCUGUGGCUAGACUGCCUCUCUGGAUUCCCCGUCACUCAGCAGGGCAUCUCUGAGAGAAAUGCC, the self-cleavage was 0.

For the origin of these results see the RNAGym collection of RNA variant scans (doi:10.7554/elife.90254).
